Experimental findings from paper PMC4770211 are described below.

By UniProt entry, the sequences of proteins in these tests, tags left out.
UniProt Q9SR02: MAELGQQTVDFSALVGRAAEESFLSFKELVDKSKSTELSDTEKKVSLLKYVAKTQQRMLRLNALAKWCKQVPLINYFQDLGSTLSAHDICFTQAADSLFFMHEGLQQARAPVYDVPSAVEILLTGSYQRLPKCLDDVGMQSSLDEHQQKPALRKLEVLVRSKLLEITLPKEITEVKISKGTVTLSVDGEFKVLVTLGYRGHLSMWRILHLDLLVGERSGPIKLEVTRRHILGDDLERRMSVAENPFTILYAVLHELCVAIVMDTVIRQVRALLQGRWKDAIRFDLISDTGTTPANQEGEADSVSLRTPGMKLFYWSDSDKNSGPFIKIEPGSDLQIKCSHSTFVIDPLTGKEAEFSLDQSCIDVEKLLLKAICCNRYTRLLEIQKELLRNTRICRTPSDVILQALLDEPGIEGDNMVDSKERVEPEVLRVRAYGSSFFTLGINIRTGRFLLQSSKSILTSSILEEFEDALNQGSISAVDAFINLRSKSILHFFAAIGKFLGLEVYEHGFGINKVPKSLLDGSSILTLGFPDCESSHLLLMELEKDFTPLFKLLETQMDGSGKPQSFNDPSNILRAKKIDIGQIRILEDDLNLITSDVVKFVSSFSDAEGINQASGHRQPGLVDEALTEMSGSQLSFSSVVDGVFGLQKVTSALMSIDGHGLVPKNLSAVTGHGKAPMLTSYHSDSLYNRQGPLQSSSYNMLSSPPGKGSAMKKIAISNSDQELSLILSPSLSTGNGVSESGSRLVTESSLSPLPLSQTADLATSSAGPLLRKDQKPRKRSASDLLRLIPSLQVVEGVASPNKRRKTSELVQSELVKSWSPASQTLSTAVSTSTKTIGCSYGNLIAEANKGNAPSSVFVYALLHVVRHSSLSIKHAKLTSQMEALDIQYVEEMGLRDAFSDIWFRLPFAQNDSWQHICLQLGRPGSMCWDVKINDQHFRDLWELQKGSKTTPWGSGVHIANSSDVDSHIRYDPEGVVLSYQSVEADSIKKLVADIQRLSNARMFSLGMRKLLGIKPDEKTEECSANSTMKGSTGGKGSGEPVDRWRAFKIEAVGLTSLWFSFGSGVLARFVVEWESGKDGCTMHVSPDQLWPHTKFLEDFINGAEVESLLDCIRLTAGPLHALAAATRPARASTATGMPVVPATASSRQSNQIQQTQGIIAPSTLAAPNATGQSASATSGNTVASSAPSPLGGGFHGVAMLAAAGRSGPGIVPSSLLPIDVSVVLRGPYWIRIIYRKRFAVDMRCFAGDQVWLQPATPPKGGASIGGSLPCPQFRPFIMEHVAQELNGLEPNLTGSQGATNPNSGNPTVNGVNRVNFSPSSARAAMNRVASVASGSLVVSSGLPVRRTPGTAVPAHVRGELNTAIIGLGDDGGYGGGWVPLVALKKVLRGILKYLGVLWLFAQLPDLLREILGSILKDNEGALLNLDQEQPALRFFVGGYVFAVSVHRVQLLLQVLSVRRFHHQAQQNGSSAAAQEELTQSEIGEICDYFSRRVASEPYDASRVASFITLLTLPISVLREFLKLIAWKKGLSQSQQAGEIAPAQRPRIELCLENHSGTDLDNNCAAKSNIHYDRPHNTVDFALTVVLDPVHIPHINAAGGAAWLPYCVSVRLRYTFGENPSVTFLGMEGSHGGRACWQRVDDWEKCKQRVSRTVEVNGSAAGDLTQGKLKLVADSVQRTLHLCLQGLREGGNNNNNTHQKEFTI

The target of assay [1] is T1, AtMed4, full length, yeast two-hybrid bait (Arabidopsis) (UniProt Q9LZ00).
T1 sequence: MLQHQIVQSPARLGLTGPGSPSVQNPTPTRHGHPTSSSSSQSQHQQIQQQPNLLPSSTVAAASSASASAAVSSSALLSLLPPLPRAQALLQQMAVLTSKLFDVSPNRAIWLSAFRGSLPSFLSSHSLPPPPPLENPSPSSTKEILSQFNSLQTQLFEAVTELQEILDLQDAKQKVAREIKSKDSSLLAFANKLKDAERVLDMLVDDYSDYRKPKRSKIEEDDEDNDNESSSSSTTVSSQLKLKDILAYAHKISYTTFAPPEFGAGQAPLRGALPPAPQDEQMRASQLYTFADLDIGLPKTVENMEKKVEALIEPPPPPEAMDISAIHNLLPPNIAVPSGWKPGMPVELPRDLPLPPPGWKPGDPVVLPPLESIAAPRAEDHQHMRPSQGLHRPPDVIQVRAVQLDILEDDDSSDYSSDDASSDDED
Description: two-hybrid; Matchmaker Gold system; BD (pGBKT7) and AD (pGADT7) constructs co-transformed in yeast strain AH109, selected on SD-Trp-/Leu-, spotted at OD600 ~0.2 on SD-Trp-/Leu-/His-/Ade-; full-length subunits and deletion fragments.

The target in assay [2] is T1, AtMed4, full length, yeast two-hybrid bait (Arabidopsis). Described as above. The source holds these as a separate data set.
For assay [3], the target named is T2, AtMed4 in the BiFC vector pSAT4-DEST-N (1–174) EYFP-C1 (Arabidopsis) (UniProt Q9LZ00).
T2 sequence: T1 sequence
Briefly: split reporter; BiFC with the EYFP halves 1-174 and 175-end, plasmids bombarded on onion epidermal cells, confocal microscopy after 24 h; signal in the nucleus.

The target of assay [4] is T3, AtMed4 (306–426), C-terminal IDR, yeast two-hybrid deletion construct (Arabidopsis) (UniProt Q9LZ00).
T3 sequence: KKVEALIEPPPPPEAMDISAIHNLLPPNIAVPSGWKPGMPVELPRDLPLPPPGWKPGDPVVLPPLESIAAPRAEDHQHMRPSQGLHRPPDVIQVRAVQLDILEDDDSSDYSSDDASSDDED
Briefly: two-hybrid; Matchmaker Gold system; BD (pGBKT7) and AD (pGADT7) constructs co-transformed in yeast strain AH109, selected on SD-Trp-/Leu-, spotted at OD600 ~0.2 on SD-Trp-/Leu-/His-/Ade-; full-length subunits and deletion fragments.

The target of assay [5] is AtMed19a, full length, yeast two-hybrid fusion (Arabidopsis) (UniProt Q9FMP0). The assay is described as above.

Read-outs that look alike come from different tables or passages of the source. No constants are given. Whether binding was seen depends on the method and setting. For part of these data: In cells and extracts the contact can be indirect. Some binding calls cover weakened binding; strength is not graded here. For part of these data: Sequences can lack the tags named with a protein.

With “AtMed14, yeast two-hybrid fusion (from UniProt Q9SR02 1-1703)”, the binding entry in assay [1] is “no binding”.

B1: AtMed9, full length, yeast two-hybrid prey (protein, UniProt Q8RWA2 1-244)
chain: MDQFSGGGGNWSMIPNVQAQGNFGTPTNHDQQLFLQQQQLQQQQQQQQQQQFHLQQQQQTQQQQQQFQPQQQQEMQQYQQFQQQQHFIQQQQFQQQQRLLQSPPLQPQSLQSPPPQQTMVHTPQSMMHTPQQQQQLVQTPVQTPQQHQSLASHFHLYPMVEKLADVIENGTRDQNSDALVNELNSHFDKCQQLLNSISGSLGSKTMTVDGQKRNVEESEQLLQQRRDLIVEYRKSIEEIVTMEH
In the case of B1, the binding entry in assay [2] is reported as “binds”.

B2: AtMed9 in the BiFC vector pSAT5-DEST-C (175-END) EYFP-C1 (protein, UniProt Q8RWA2 1-244)
chain: B1 chain
Consider B2, for which, in assay [3], the binding result is “binds”.

B3: AtMed9 (1–130), N-terminal IDR, yeast two-hybrid deletion construct (domain or fragment, UniProt Q8RWA2 1-130)
chain: MDQFSGGGGNWSMIPNVQAQGNFGTPTNHDQQLFLQQQQLQQQQQQQQQQQFHLQQQQQTQQQQQQFQPQQQQEMQQYQQFQQQQHFIQQQQFQQQQRLLQSPPLQPQSLQSPPPQQTMVHTPQSMMHTP
With B3, the binding result in assay [4] is recorded as “binds”.

B4: AtMed3, yeast two-hybrid fusion (protein, UniProt Q8RWM3 1-402)
chain: MQTLHQSQLLQNPAEAANNQSESDAPPKQVAQAMERLNQAARVIADIRLGADRILEAMFVASQPRHTDMPLQLFLREDASMRQHLQDLRLIGKKLEESGVLTESLRSRSNSWGLHMPLVCPDGAVVAYAWKRQLAGQAGASAVDRTRLALKAFTDQKRRFFPHIDDGLKMEPSSKKHRASHLLLENGREEPVDYKTLPDIQSRLEKLVPSVKVSTYGRLNWLKRANSLPGSGSDDPTEASKPIFQSSSKLRSGLQTEVVDKIAVIELSFPSLFRAIVSLSPAGSVDPDAVAFFSPDEGGSYLHARGFSVYHVYKHITEHAATALQYFLGFGTGTALYSLLLWICSFESVFSKPCTKCGRLLAMDKKSALILPPLHRAYQELPLALNLDVCEAYHSSCSQDDT
Take B4: the binding result in assay [2] was “no binding”.

B5: AtMed19a, full length, yeast two-hybrid fusion (protein, UniProt Q9FMP0 1-221)
chain: MEPERLKFGGPRELCGAADLISQFKLVQHHEFFCKKSLPVSLSDSHYLHNVVGDTEIRKGEGMQLDQLIESISQSRETNIRIQPFDIDELQESFQLNDMTPVELPPAEKGAPTIPSKSKSESKDRDRKHKKHKDRDKDKDREHKKHKHKHKDRSKDKDKDKDRDRKKDKNGHHDSGDHSKKHHDKKRKHDGDEDLNDVQRHKKNKHKSSKLDEVGAIRVAG
On to B5, for which the binding result in assay [5] is “binds”.
